# Measured values published in patent EP0992240A1, “THERAPEUTIC AGENT FOR ERECTION FAILURE” (MOCHIDA PHARMACEUTICAL CO., LTD., priority 1997, dated 1998).
# Like-named read-outs stand apart in the source and are kept apart here.
# How the values were obtained:
# PDE type I = test: PDE inhibiting activity, type I; assay type: biochemical, dog; conditions: PDE purified from canine aorta; 1 µM substrate cGMP or cAMP; read-out: Inhibition Activity IC50 (µM) Type I
# Description: On the basis of the method of Lugnier et al. (Biochem. Pharmacol., 35, 1743-1751, 1986), PDE was purified from the aorta in a dog. The canine aorta was minced and homogenized with a Waring Blender and a glass homogenizer in six volumes of a Tris-HCl buffer solution (pH 7.5, 20 mM) containing 2 mM magnesium acetate, 5 mM ethylenediaminetetraacetic acid (EDTA), 100 µg/mL of phenylmethylsulforyl fluoride and 15 mM 2-mercaptoethanol (2-ME), and centrifuged at 1200 x g for 30 min. The supernatant was separated and salted out with ammonium sulfate which was added to 45% saturation. The resulting precipitated fraction was resuspended in a Tris-HCl buffer solution (pH 7.5, 20 mM) containing 2 mM magnesium acetate and 1 mM 2-ME, dialyzed overnight and applied to a DEAE-trisacryl column (DEAE […] M:IBF). By elution with a sodium chloride gradient (0 - 0.4 M), PDE types V and III were separated from the other isozymes. The supernatant fraction of 45% saturated ammonium sulfate was further mixed with ammonium sulfate to 65% saturation and salted out. The resulting precipitated fraction was similarly applied to the DEAE-trisacryl column and eluted by a sodium chloride gradient (0 - 0.4 M) so as to separate PDE type I.
# The thus obtained PDE types V, III and I were measured for their activity in accordance with the method of Thompson et al. (Adv. Cyclic Nucleotide Res., 10, 69-72, 1979) and the method of Wells et al. (Biochim. Biophys. Acta, 384, 430-443, 1975). Specifically, a purified PDE sample was added to 50 mM Tris-HCl buffer solution (pH 7.5) containing 1 µM of substrate cGMP or cAMP (containing tritium-labelled cGMP or cAMP), 1 mM EGTA and 2 mM magnesium acetate. For PDE activity measurement, enzymatically produced 5' GMP or 5' AMP was further hydrolyzed into guanosine or adenosine with snake venom and separated from the substrate by means of an ion-exchange resin (Dowex 1-X2), followed by measuring with a scintillation counter. The activity of each test compound was determined as a percentage of the PDE activity measured when it was added as a dimethyl sulfoxide solution (DMSO) and its IC50 (50% inhibition concentration) was calculated by the probit method. The final concentration of DMSO was adjusted to be no more than 2% in consideration of the effect on PDE activity.
# PDE type V = target: T1, PDE type V (Canis lupus familiaris, UniProt O77746); test: PDE inhibiting activity, type V; assay type: biochemical, dog; conditions: PDE purified from canine aorta, 1 µM substrate cGMP or cAMP
# T1 construct: By elution with a sodium chloride gradient (0 - 0.4 M), PDE types V and III were separated from the other isozymes; from tissue; host or cells: canine aorta
# [1] = read-out: Inhibition Activity IC50 (µM) Type V
Compound,IC50 (PDE type I),IC50 (PDE type V; [1]),IC50 (PDE type V; Inhibition Activity IC50 (µM) Type V)
"O=c1c(Cc2cccnc2)cn2c3cc(Br)ccc3c3cc(O)cc1c32 [Example 31, 9-bromo-2-hydroxy-5-(3-pyridylmethyl)-4H-pyrido[3,2,1-jk]carbazol-4-one]",> 30 µM,0.0073 µM,
"O=c1c(Cc2cccnc2)cn2c3cc(Cl)ccc3c3cc(OCCCO)cc1c32 [Example 53, 9-chloro-2-(3-hydroxypropyloxy)-5-(3-pyridylmethyl)-4H-pyrido[3,2,1-jk]carbazol-4-one]",> 30 µM,0.014 µM,
"CCNC(=O)COc1cc2c(=O)c(Cc3cccnc3)cn3c4cc(Br)ccc4c(c1)c23 [Example 37, 9-bromo-2-(N-ethylcarbamoylmethyloxy)-5-(3-pyridylmethyl)-4H-pyrido[3,2,1-jk]carbazol-4-one]",> 30 µM,,0.067 µM
"O=c1ccn2c3ccc(Cl)cc3c3cccc1c32 [Example 44, 10-chloro-4H-pyrido[3,2,1-jk]carbazol-4-one]",> 100 µM,0.43 µM,
"O=c1c(Cc2cccnc2)cn2c3cc(Br)ccc3c3cc(OCc4cccnc4)cc1c32 [Example 34, 9-bromo-5-(3-pyridylmethyl)-2-(3-pyridylmethyloxy)-4H-pyrido[3,2,1-jk]carbazol-4-one]",> 30 µM,,
"Cc1cc2c(=O)ccn3c4ccc(Br)cc4c(c1)c23 [Example 50, 10-bromo-2-methyl-4H-pyrido[3,2,1-jk]carbazol-4-one]",> 30 µM,0.04 µM,
"O=c1c(Cc2cccnc2)cn2c3cc(C(F)(F)F)ccc3c3cc(OCCCO)cc1c32 [Example 55, 2-(3-hydroxypropyloxy)-5-(3-pyridylmethyl)-9-trifluoromethyl-4H-pyrido[3,2,1-jk]carbazol-4-one]",> 30 µM,0.017 µM,
"O=c1c(Cc2cccnc2)cn2c3cc(Br)ccc3c3cc(OCCCO)cc1c32 [Example 38, 9-bromo-2-(3-hydroxypropyloxy)-5-(3-pyridylmethyl)-4H-pyrido[3,2,1-jk]carbazol-4-one]",> 30 µM,0.0079 µM,
"CCOC(=O)COc1cc2c(=O)c(Cc3cccnc3)cn3c4ccc(Cl)cc4c(c1)c23 [Example 47, 10-chloro-2-ethoxycarbonylmethyloxy-5-(3-pyridylmethyl)-4H-pyrido[3,2,1-jk]carbazol-4-one]",> 30 µM,0.042 µM,
